According to the RNAGym collection of RNA variant scans (doi:10.1073/pnas.2313332121):
Variants at the floor of the assay are shown more often than the library holds them.

B1: TPR 5TU (parent)
chain: GGAUCUUCUCGAUCUAACAAAAAAGACAAAUCUGCCACAAAGCUUGAGAGCAUCUUCGGAUGCAGAGGCGGCAGCCUUCGGUGGCGCGAUAGCGCCAACGUUCUCAACUAUGACACGCAAAACGCGUGCUCCGUUGAAUGGAGUUUAUCAUG

Variants of: B1
Assay: polymerase ribozyme fitness, log enrichment relative to wild type (log ratio); higher = more active; in vitro selection for triplet polymerase activity
Procedure, shortened: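 Mutant libraries for each subunit of a heterodimeric triplet polymerase ribozyme were made by PCR and then transcribed. Each library underwent one round of in vitro selection in triplicate: annealing with a biotinylated primer, the partner subunit and triplets, frozen incubation at −7 °C, gel excision of extended constructs, streptavidin-bead capture and RT-PCR. Input and output libraries were Illumina-sequenced, and only genotypes with ≥10 input reads and ≥1 read per output were kept. Fitness is the logarithm, base 2, of genotype enrichment over wild-type enrichment, computed from inverse-variance-weighted replicate averages.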

Variant	polymerase ribozyme fitness (log ratio)
A40G G74A A89C C95G A120C G141A	≤ -4.2
A41C G42U C79G G80C C116U	≤ -4.2
A41C U135C	-3.55
A41U G62C G136U	-3.69
A41C C87U C93G G133A	≤ -4.2
A40U A60G A89U U134C	-0.16
A41U C69U C87U	-2.75
A41G A47C G50A C57U C95U A107G U130G	≤ -4.2
A40U C79A C87U	≤ -4.2
A40U A41G A49U U56C U61G G83A G86U C125U	≤ -4.2
G42A A47C U77G G92U	≤ -4.2
A41U U144G	0.164
A40U G92U A98C C103G A120C U134A	-3.87
G42A A47C U55A C85U	≤ -4.2
A41C C132A	-2.55
A41U C54A G80U G88C	≤ -4.2
A40U G86U C93U C149U	-3.56
A41U G88A	≤ -4.2
A41C C54G G58U G94U G128C	≤ -4.2
A40G G92C G136U U146G	≤ -4.2
A41C U55G C69A G94C C132U G133U	≤ -4.2

Variant	polymerase ribozyme fitness (log ratio)
A41C G48C G80C C116A G133A A138U U145C	≤ -4.2
A40U G86C G152A	≤ -4.2
A41G C57U U61A A120U G140A	≤ -4.2
A40U G68C U77A G124A A150C	≤ -4.2
A40U G80A C87A U127G A147C	≤ -4.2
A40U A89C	-0.129
A41G G46U A89U C93G A120G	≤ -4.2
A41C A49U U53A C69U C72U U109A U139A	≤ -4.2
A40U U53G G83A C87U U101C G141C	≤ -4.2
A41G G68U C93G U102A C116A A121G C123U A150U	≤ -4.2
A40U G70A G88A A89C C108A	≤ -4.2
A41G G59C G65A G81C C93U C95U C149G	≤ -4.2
A40U G42A C63U C114U A119C G141U G143A	≤ -4.2
G42A A142C	-4.17
A40U U44A G59C C87G U104G G124A	≤ -4.2
A40U C95U	-1.07
A41C A47C A60U U148C	≤ -4.2
A40U C87G G133U U135G A142G	≤ -4.2
A41C U127G G136U G141U	≤ -4.2
A40G U56A G67A G83A	≤ -4.2
A41C G42C G62A G67C	≤ -4.2

Variant	polymerase ribozyme fitness (log ratio)
A40U G141U	0.96
A41U G62C C63A C96A A115U	≤ -4.2
A41U U44A C54G A73G C99A C125A	≤ -4.2
A41U C105G	-1.73
A41C U53C G65C A97C	≤ -4.2
A41G A89G U102G A106C	≤ -4.2
A41G C76A G80U C96U C118U G124A	≤ -4.2
A41C C43A A91C C99U A113U	≤ -4.2
A41C C63A U77A C95U U127G G136U U144C	≤ -4.2
A41C C43U G84C	≤ -4.2
A41C A66G C75U G94U U104C A107G A113G	≤ -4.2
A41G C87A A121G C123U G140A U146C C149G	≤ -4.2
A40U A41U G46A C57A C87A G92U	0.0643
A41C G92U	-1.08
A40G U55G U56A G88C	≤ -4.2
A41U C72G C85U A110G C123A U139A A142U G143C G152U	≤ -4.2
A40U G50A C93A A150G	≤ -4.2
A41C U61A A73U A107G	≤ -4.2
A41C C93A A110U	≤ -4.2
A41C G71U C87U	≤ -4.2
A41U A52U C85U G100A A115U U127C G143C	≤ -4.2

Variant	polymerase ribozyme fitness (log ratio)
A40G G80A G94A C96U C118A U135G	≤ -4.2
A41G G50A C54G C79U U90G C93G U109A	≤ -4.2
A40U G83C C96A G152A	-3.95
A40G U53A G84C C95A A142C	≤ -4.2
A40G U61G A91G G94U U145A	≤ -4.2
A40U G86A G140U A150C	≤ -4.2
A41C C69A U102A C118U	≤ -4.2
A41G C93U A107G C116U G140A	≤ -4.2
A40U U53C G74U U101G	≤ -4.2
A41C G68C U102G C118A A137G U144A	≤ -4.2
A41U C85U C99A C105A C118G A119C	≤ -4.2
A41C U53A U135A	-1.07
A41G A47C G81C	-0.0928
A41U G67C G136U	≤ -4.2
A41U C85G G126A	-2.76
A41G A52U C75A G83A A113U U148A	≤ -4.2
A41C C54U C85A C103A G117A G133C A137U	≤ -4.2
A41G A49C U55C A97G	≤ -4.2
A41U U139C U148G	≤ -4.2
A41U C54U C85U A91U C114U	≤ -4.2
A41G U55A C72G A91G U145G	≤ -4.2
